Patent publication US20230045262A1 (Hoffmann-La Roche, published 2023)

What was measured:
[1] = target: T1, human 4-1BB on cells (activated human T cells; HeLa-hu4-1BB-NFκB-luc clone 26; Jurkat-hu4-1BB-NFκB-luc2) (human, UniProt Q07011 24-255); test: flow cytometry on activated human CD4+ T cells (CD4 binding)
T1 construct: also called CD137; cell-expressed 4-1BB

[2] = target: T1, human 4-1BB on cells (activated human T …); test: flow cytometry on activated human CD8+ T cells (CD8 binding)
[3] = target: T2, human CD19 on cells (primary human B cells; WSU-DLCL2) (human, UniProt P15391 20-556); test: flow cytometry on WSU-DLCL2 cells (WSU binding)
T2 construct: also called CD19+ human B cells; CD19+ WSU tumor cells
T2 sequence: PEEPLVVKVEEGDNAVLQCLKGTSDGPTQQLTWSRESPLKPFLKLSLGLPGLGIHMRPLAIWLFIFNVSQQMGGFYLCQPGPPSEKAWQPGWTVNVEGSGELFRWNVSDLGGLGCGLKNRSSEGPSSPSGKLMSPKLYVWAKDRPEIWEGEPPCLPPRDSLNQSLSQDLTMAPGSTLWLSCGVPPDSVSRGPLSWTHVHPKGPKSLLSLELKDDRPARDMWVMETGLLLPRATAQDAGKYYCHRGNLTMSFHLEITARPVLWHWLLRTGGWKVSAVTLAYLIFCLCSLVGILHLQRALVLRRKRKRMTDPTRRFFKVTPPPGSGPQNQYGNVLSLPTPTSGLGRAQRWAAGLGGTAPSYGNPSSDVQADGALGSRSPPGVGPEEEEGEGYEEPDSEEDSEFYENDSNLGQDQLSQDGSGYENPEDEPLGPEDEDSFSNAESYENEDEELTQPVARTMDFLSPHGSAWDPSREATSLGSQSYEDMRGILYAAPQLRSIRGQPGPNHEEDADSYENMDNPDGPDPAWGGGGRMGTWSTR

[4] = target: T2, human CD19 on cells (primary human B …); test: flow cytometry on primary human B cells (B cell binding)
[5] = target: T1, human 4-1BB on cells (activated human T …); test: cell-based or functional assay

Sequence of UniProt Q07011 (Q07011 24-255 limits assumed): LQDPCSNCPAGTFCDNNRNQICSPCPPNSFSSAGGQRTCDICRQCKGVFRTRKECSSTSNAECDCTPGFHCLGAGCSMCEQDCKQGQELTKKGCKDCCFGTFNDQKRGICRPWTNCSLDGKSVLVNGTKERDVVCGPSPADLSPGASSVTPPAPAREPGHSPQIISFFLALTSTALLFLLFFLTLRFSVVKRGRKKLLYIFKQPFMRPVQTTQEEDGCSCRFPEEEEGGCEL

EC50 [1]: 0.37 nM | EC50 [2]: 0.9 nM | EC50 [3]: 0.3 nM | EC50 [4]: 0.37 nM | EC50 of IFN-γ production by activated human PBMCs (ELISA) [5]: 0.03 nM
B1: CD19(2B11)×4-1BBL (other)
chain 1: QVQLVQSGAEVKKPGASVKVSCKASGYTFTDYIMHWVRQAPGQGLEWMGYINPYNDGSKYTEKFQGRVTMTSDTSISTAYMELSRLRSDDTAVYYCARGTYYYGPQLFDYWGQGTTVTVSS
chain 2: DIVMTQTPLSLSVTPGQPASISCKSSQSLETSTGTTYLNWYLQKPGQSPQLLIYRVSKRFSGVPDRFSGSGSGTDFTLKISRVEAEDVGVYYCLQLLEDPYTFGQGTKLEIK
chain 3: [about 200 residues not shown]
